The GPR68 mutational scans of Howard et al. (2025)
The least precise scores are not listed. The source holds two more conditions with little spread; they are left out. Read del as a deletion of the residues named and ins as an insertion between two positions. For some of these results: How much ogerin was present is not stated here.

B1: GPR68, Q15743 (parent)
chain: MGNITADNSSMSCTIDHTIHQTLAPVVYVTVLVVGFPANCLSLYFGYLQIKARNELGVYLCNLTVADLFYICSLPFWLQYVLQHDNWSHGDLSCQVCGILLYENIYISVGFLCCISVDRYLAVAHPFRFHQFRTLKAAVGVSVVIWAKELLTSIYFLMHEEVIEDENQHRVCFEHYPIQAWQRAINYYRFLVGFLFPICLLLASYQGILRAVRRSHGTQKSRKDQIQRLVLSTVVIFLACFLPYHVLLLVRSVWEASCDFAKGVFNAYHFSLLLTSFNCVADPVLYCFVSETTHRDLARLRGACLAFLTCSRTGRAREAYPLGAPEASGKSGAQGEEPELLTKLHPAFQTPNSPGSGGFPTGRLA

Assays:
[1] = variants of: B1; test: cAMP reporter score (Enrich2 score, wild type = 0); higher = more signal; HEK293T, FACS bins
[2] = variants of: B1; test: surface expression score (Enrich2 score, wild type = 0); higher = more signal; HEK293T, FACS bins

Variant | cAMP reporter score ([1]; pH 5.5) | cAMP reporter score ([1]; pH 6, modulator: ogerin) | cAMP reporter score ([1]; pH 6.5, modulator: ogerin) | surface expression score [2] | cAMP reporter score ([1]; pH 6)
MGNITADNSSMSCTIDHTIHQTLAPVVYVTVLVVGFPANCLSLYFGYLQIKARNELGVYLCNLTVADLFYICSLPFWLQYVLQHDNWSHGDLSCQVCGILLYENIYISVGFLCCISVDRYLAVAHPFRFHQFRTLKAAVGVSVVIWAKELLTSIYFLMHEEVIEDENQHRVCFEHYPWQAWQRAINYYRFLVGFLFPICLLLASYQGILRAVRRSHGTQKSRKDQIQRLVLSTVVIFLACFLPYHVLLLVRSVWEASCDFAKGVFNAYHFSLLLTSFNCVADPVLYCFVSETTHRDLARLRGACLAFLTCSRTGRAREAYPLGAPEASGKSGAQGEEPELLTKLHPAFQTPNSPGSGGFPTGRLA [I178W] | -1.98 | -1.79 | -0.198 | 0.468 | –
MGNITADNSSMSCTIDHTIHQTLAPVVYVTVLVVGFPANCLSLYFGYLQIKARNELGVYLCNLTVADLFYICSLPFWLQYVLQHDNWSHGDLSCQVCGILLYENIYISVGFLCCISVDRYLAVAHPFRFHQFRTLKAAVGVSVVIWAKELLTSIYFLMHEEVIEDENQHRVCFEHYPYQAWQRAINYYRFLVGFLFPICLLLASYQGILRAVRRSHGTQKSRKDQIQRLVLSTVVIFLACFLPYHVLLLVRSVWEASCDFAKGVFNAYHFSLLLTSFNCVADPVLYCFVSETTHRDLARLRGACLAFLTCSRTGRAREAYPLGAPEASGKSGAQGEEPELLTKLHPAFQTPNSPGSGGFPTGRLA [I178Y] | -0.055 | -1.36 | -0.828 | -0.214 | -0.549
I178_Q179del | -1.2 | -1.74 | -1.09 | -2.08 | -0.69
I178_Q179insG | -1.5 | -2.29 | -1.36 | -2.64 | -1.65
I178del | -1.97 | -1.54 | -1.04 | -2.31 | -1.51
MGNITADNSSMSCTIDHTIHQTLAPVVYVTVLVVGFPANCLSLYFGYLQIKARNELGVYLCNLTVADLFYICSLPFWLQYVLQHDNWSHGDLSCQVCGILLYENIYISVGFLCCISVDRYLAVAHPFRFHQFRTLKAAVGVSVVIWAKELLTSIYFLMHEEVIEDENQHRVCFEHYPIQCWQRAINYYRFLVGFLFPICLLLASYQGILRAVRRSHGTQKSRKDQIQRLVLSTVVIFLACFLPYHVLLLVRSVWEASCDFAKGVFNAYHFSLLLTSFNCVADPVLYCFVSETTHRDLARLRGACLAFLTCSRTGRAREAYPLGAPEASGKSGAQGEEPELLTKLHPAFQTPNSPGSGGFPTGRLA [A180C] | -1.22 | -0.743 | -2.41 | -0.43 | -0.687
MGNITADNSSMSCTIDHTIHQTLAPVVYVTVLVVGFPANCLSLYFGYLQIKARNELGVYLCNLTVADLFYICSLPFWLQYVLQHDNWSHGDLSCQVCGILLYENIYISVGFLCCISVDRYLAVAHPFRFHQFRTLKAAVGVSVVIWAKELLTSIYFLMHEEVIEDENQHRVCFEHYPIQEWQRAINYYRFLVGFLFPICLLLASYQGILRAVRRSHGTQKSRKDQIQRLVLSTVVIFLACFLPYHVLLLVRSVWEASCDFAKGVFNAYHFSLLLTSFNCVADPVLYCFVSETTHRDLARLRGACLAFLTCSRTGRAREAYPLGAPEASGKSGAQGEEPELLTKLHPAFQTPNSPGSGGFPTGRLA [A180E] | -0.389 | -0.322 | 0.18 | -0.597 | 0.47
